Results reported in patent US20100075953A1, “SUBSTITUTED PIPERAZINES, (1,4) DIAZEPINES, AND 2,5-DIAZABICYCLO (2.2.1) HEPTANES AS HISTAMINE H1 AND/OR H3 ANTAGONISTS OR HISTAMINE H3 REVERSE ANTAGONISTS” (Glaxo Group Limited, priority 2002, published 2010).
Where a name gives a salt, the structure may show the parent alone. Some of these results come from one statement about several compounds together.

Tests used:
histamine H3 receptor = histamine H3 receptor (Homo sapiens, UniProt Q9Y5N1); test: Histamine H3 functional antagonist assay; details: membranes of CHO K1 cells expressing human H3, [35S]GTPgammaS SPA, histamine 0.3 μM
Chain of histamine H3 receptor (Q9Y5N1 whole entry): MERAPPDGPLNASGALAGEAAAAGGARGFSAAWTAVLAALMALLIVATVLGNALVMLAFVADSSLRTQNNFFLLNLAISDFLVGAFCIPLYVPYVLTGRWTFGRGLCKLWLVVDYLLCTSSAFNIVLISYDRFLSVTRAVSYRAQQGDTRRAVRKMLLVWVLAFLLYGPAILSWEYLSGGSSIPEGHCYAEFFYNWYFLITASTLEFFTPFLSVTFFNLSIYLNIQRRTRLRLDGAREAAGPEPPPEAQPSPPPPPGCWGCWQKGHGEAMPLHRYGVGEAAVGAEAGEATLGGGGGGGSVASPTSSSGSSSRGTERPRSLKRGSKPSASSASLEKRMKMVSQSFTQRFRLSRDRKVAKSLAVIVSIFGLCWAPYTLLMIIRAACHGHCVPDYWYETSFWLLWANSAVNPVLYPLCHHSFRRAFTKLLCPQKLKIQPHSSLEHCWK

human H1 receptor = target: T1, human H1 receptor (Homo sapiens, UniProt P35367); test: Histamine H1 functional antagonist assay; type: cell-based; details: CHO cells expressing human H1, suppression of histamine induced increase in fluorescence (FLIPR)
T1 construct: expressed in transfected cells
T1 sequence (P35367 whole entry): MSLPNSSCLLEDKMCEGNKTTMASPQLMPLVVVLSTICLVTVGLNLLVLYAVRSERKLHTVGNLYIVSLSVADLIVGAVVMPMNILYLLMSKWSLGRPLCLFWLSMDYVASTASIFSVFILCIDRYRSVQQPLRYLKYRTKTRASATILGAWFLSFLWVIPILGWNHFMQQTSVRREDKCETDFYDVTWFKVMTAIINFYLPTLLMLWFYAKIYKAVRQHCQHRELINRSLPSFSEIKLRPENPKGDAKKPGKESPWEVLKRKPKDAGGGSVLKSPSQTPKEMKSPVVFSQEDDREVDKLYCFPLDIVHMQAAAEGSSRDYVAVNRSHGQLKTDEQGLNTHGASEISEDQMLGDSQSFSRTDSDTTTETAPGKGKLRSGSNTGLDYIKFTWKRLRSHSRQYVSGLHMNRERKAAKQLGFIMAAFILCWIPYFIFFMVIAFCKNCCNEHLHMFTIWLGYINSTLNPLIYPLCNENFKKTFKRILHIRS

c1ccc(N2CCN(CCc3ccc(OCCCN4CCCCC4)cc3)CC2)cc1 [Example E500, 1-Phenyl-4-{2-[4-(3-piperidin-1-ylpropoxy)phenyl]ethyl}piperazine trifluoroacetate]
antagonism in the histamine H3 functional antagonist assay (pKb) (histamine H3 receptor): > 6.5 pKb | antagonism in the histamine H1 functional antagonist assay (pKb) (human H1 receptor; listed as Example E500, trifluoroacetate): > 6.5 pKb | antagonism in the histamine H1 functional antagonist assay (pKb) (human H1 receptor; trifluoroacetate): > 7.3 pKb

CC(C)c1ccc(C(=O)N2CCN(c3ccc(OCCCN4CCCCC4)cc3)CC2)cc1C#N [Example E122]
antagonism in the histamine H3 functional antagonist assay (pKb) (histamine H3 receptor): > 6.5 pKb | antagonism in the histamine H1 functional antagonist assay (pKb) (human H1 receptor): > 6.5 pKb

O=C(c1cccc2ccccc12)N1CCN(CCc2ccc(OCCN3CCCCCCC3)cc2)CC1.O=CO [Example E477]
antagonism in the histamine H3 functional antagonist assay (pKb) (histamine H3 receptor): > 6.5 pKb | antagonism in the histamine H1 functional antagonist assay (pKb) (human H1 receptor): > 6.5 pKb

O=C(c1cccc(-c2ccccc2)c1)N1CCN(c2ccc(OCCCN3CCCCC3)cc2)CC1 [Example E81]
antagonism in the histamine H3 functional antagonist assay (pKb) (histamine H3 receptor): > 6.5 pKb | antagonism in the histamine H1 functional antagonist assay (pKb) (human H1 receptor): > 6.5 pKb

CCSc1cccc(C(=O)N2CCN(c3ccc(OCCCN4CCCCC4)cc3)CC2)c1 [Example E95]
antagonism in the histamine H3 functional antagonist assay (pKb) (histamine H3 receptor): > 6.5 pKb | antagonism in the histamine H1 functional antagonist assay (pKb) (human H1 receptor): > 7.3 pKb | antagonism in the histamine H1 functional antagonist assay (pKb) (human H1 receptor; listed as Example E95): > 6.5 pKb

COc1c(C(=O)N2CCN(c3ccc(OCCCN4CCCCC4)cc3)CC2)cccc1C(C)C [Example E91]
antagonism in the histamine H3 functional antagonist assay (pKb) (histamine H3 receptor): > 6.5 pKb | antagonism in the histamine H1 functional antagonist assay (pKb) (human H1 receptor): > 7.3 pKb | antagonism in the histamine H1 functional antagonist assay (pKb) (human H1 receptor; listed as Example E91): > 6.5 pKb

CC1CCCC(C)N1CCCOc1ccc(CCN2CCN(C(=O)c3cccc4ccccc34)CC2)cc1.O=CO (stereo not drawn) [Example E468]
antagonism in the histamine H3 functional antagonist assay (pKb) (histamine H3 receptor): > 6.5 pKb | antagonism in the histamine H1 functional antagonist assay (pKb) (human H1 receptor): > 7.3 pKb | antagonism in the histamine H1 functional antagonist assay (pKb) (human H1 receptor; listed as Example E468): > 6.5 pKb

O=C(c1ccnc2ccccc12)N1CCN(c2ccc(OCCCN3CCCCC3)cc2)CC1 [Example E249]
antagonism in the histamine H3 functional antagonist assay (pKb) (histamine H3 receptor; listed as Example E249): > 6.5 pKb | antagonism in the histamine H1 functional antagonist assay (pKb) (human H1 receptor): > 6.5 pKb

CC1CCCCN1CCCOc1ccc(N2CCN(C(=O)c3cn(C)c4ccc(F)cc34)CC2)cc1 (stereo not drawn) [Example E159]
antagonism in the histamine H3 functional antagonist assay (pKb) (histamine H3 receptor): > 6.5 pKb | antagonism in the histamine H1 functional antagonist assay (pKb) (human H1 receptor): > 6.5 pKb

CCC1CCC(C)N(CCCOc2ccc(N3CCN(C(=O)c4ccc5c(c4)CCCC5)CC3)cc2)C1 (stereo not drawn) [Example E133]
antagonism in the histamine H3 functional antagonist assay (pKb) (histamine H3 receptor): > 6.5 pKb | antagonism in the histamine H1 functional antagonist assay (pKb) (human H1 receptor): > 6.5 pKb

CCOC(=O)Cc1c(C(=O)N2CCN(c3ccc(OCCCN4CC(CC)CCC4C)cc3)CC2)c2ccccc2n1C (stereo not drawn) [Example E142]
antagonism in the histamine H3 functional antagonist assay (pKb) (histamine H3 receptor): > 6.5 pKb | antagonism in the histamine H1 functional antagonist assay (pKb) (human H1 receptor): > 6.5 pKb

c1cnc2c(N3CCN(CCc4ccc(OCCCN5CCCCC5)cc4)CC3)cccc2c1 [Example E237, 8-{4-[2-(4-{[3-(1-Piperidinyl)propyl]oxy}phenyl)ethyl]-1-piperazinyl}quinoline trifluoroacetate]
antagonism in the histamine H3 functional antagonist assay (pKb) (histamine H3 receptor): > 6.5 pKb | antagonism in the histamine H1 functional antagonist assay (pKb) (human H1 receptor): > 6.5 pKb

C=Cc1cccc(C(=O)N2CCN(c3ccc(OCCCN4CCCC(C)(C)C4)cc3)CC2)c1.O=C(O)C(F)(F)F [Example E215]
antagonism in the histamine H3 functional antagonist assay (pKb) (histamine H3 receptor): > 6.5 pKb | antagonism in the histamine H1 functional antagonist assay (pKb) (human H1 receptor): > 7.3 pKb | antagonism in the histamine H1 functional antagonist assay (pKb) (human H1 receptor; listed as Example E215): > 6.5 pKb

Cc1ccc(C(C)C)c(C(=O)N2CCN(c3ccc(OCCCN4CCCCC4)cc3)CC2)c1 [Example E111]
antagonism in the histamine H3 functional antagonist assay (pKb) (histamine H3 receptor): > 6.5 pKb | antagonism in the histamine H1 functional antagonist assay (pKb) (human H1 receptor): > 6.5 pKb

COc1ccc(C(=O)N2CCN(c3ccc(OCCCN4CCCC(C)C4)cc3)CC2)cc1C(C)C (stereo not drawn) [Example E189]
antagonism in the histamine H3 functional antagonist assay (pKb) (histamine H3 receptor): > 6.5 pKb | antagonism in the histamine H1 functional antagonist assay (pKb) (human H1 receptor): > 7.3 pKb | antagonism in the histamine H1 functional antagonist assay (pKb) (human H1 receptor; listed as Example E189): > 6.5 pKb
